Source: publication PMC3924327
These are yes or no findings as the source states them, for the method shown. Binding seen in cells or lysates may run through a third protein. Some binding calls cover weakened binding; strength is not graded here.

Protein sequences, listed by entry. Tags and fused reporters are not part of them. Lines headed by an entry give the natural chain unless they say otherwise; changes in a name come on top. Residues count along the entry.
cav-1_(2-31) peptide (Q03135, residues 2-31): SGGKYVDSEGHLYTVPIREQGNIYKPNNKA
cav-1_(19-40) peptide (Q03135, residues 19-40): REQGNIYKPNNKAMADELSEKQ
cav_(76-101) peptide (Q03135, residues 76-101): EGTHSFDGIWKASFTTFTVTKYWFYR
UniProt P04512: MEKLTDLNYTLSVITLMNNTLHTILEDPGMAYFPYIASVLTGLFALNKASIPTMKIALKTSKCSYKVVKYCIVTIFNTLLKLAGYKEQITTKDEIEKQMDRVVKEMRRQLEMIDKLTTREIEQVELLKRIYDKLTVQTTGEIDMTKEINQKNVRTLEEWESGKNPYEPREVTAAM

Columns and labels:
Assay in all cases: pull-down; only the target purified
[1] = molecular target: cav-1_(161-178) peptide (UniProt Q03135)
[2] = molecular target: cav-1_(2-31) peptide (UniProt Q03135)
[3] = molecular target: cav-1_(19-40) peptide (UniProt Q03135)
[4] = molecular target: cav_(76-101) peptide (UniProt Q03135)

Substance | binding [1] | binding [2] | binding [3] | binding [4]
FLNSP4 (full-length NSP4) expressed in yeast (from UniProt P04512 1-175) | binds | binds | binds | no binding
NSP4_(46-175) expressed in yeast (from UniProt P04512 46-175) (domain or fragment) | binds | binds | – | –
